Experimental data reported in PubChem BioAssay AID1347073 (National Center for Advancing Translational Sciences (NCATS), 2019).
The campaign covered roughly 45,000 compounds. About 200 (0.44%) were called active. Another 7% or so got no clear call; they are omitted. Calls come from the whole dose curve; as a rule, active = well fitted activation curve with a large enough effect; inconclusive = small, poorly fitted or top-dose-only effect; inactive = no such curve, though single readings can be large or run the other way. Some of the results follow.

Experiment: qHTS of TDP-43 Inhibitors: NCGC Sytravon Library Screen; note: 0% is about no effect; nearly all actives have a fitted effect of over 55% in size
Conditions: yeast TDP-43 toxicity rescue, BacTiter-Glo growth, 24 h; series mostly up to 46.1 µM; growth rescue (activation): at the top concentration
Method in brief: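 TDP-43-expressing yeast, pregrown in raffinose, seeded at OD600 0.02 in galactose medium with compound for 24 hr at 30 deg C. Growth read by BacTiter-Glo luminescence, so rescue of toxicity appears as activation.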

Row | SMILES | growth rescue (activation)
1 | CCOC(=O)c1c(NC(=O)C(NCCN(C)C)c2ccccc2)sc2c1CCCC2 (stereo not drawn) | inactive: 3.26%
2 | Cc1cccc(OCC(=O)NCCNC(=O)c2ccccn2)c1 | inactive: 8.33%
3 | Cc1noc(C)c1CSCc1ccc(Cl)cc1 | inactive: 29.9%
4 | Cc1ccccc1Nc1nnc(SCC(=O)c2ccc(O)cc2O)s1 | inactive: 37.8%
5 | COc1ccc(NC(=O)C(NC(=O)c2ccc(=O)[nH]c2)c2ccccc2)cc1 (stereo not drawn) | inactive: 8.1%
6 | Cn1c(=O)cc(SCC(=O)N2CCN(C3CCCCC3)CC2)c2ccccc21 | inactive: -16.4%
7 | CCOc1cc(/C=C2/C(=N)N3N=C(C)SC3=NC2=O)ccc1OS(=O)(=O)c1ccc(C)cc1 | inactive: 13.6%
8 | CN1c2cccc3cccc(c23)N(C)C1(C)C | inactive: 21.6%
9 | CCOc1ccc(S(=O)(=O)N2CCC(C(=O)NCC3CCCO3)CC2)cc1C (stereo not drawn) | inactive: -1.5%
10 | OCCC1CN(Cc2nc3ccccc3s2)CCN1CCc1ccccc1 (stereo not drawn) | inactive: -3.94%
11 | Cc1cc(C)c(C#N)c(SCc2ccc(C(=O)O)cc2)n1 | inactive: -11.3%
12 | Cc1ccnc2nc(C(=O)OCC(=O)c3ccc(NC(=O)CC(C)C)cc3)nn12 | inactive: 5.69%
13 | CC1=NN(c2nc(-c3ccc(C)cc3)cs2)C(=O)C1N=Nc1ccccc1O (stereo not drawn) | inactive: -10.1%
14 | O=C(CCN1C(=O)/C(=C/c2cccs2)SC1=S)Nc1ccc(O)cc1 | inactive: -1.18%
15 | CCc1nc2ccc(C(=O)Nc3cccc(OC)c3)cn2c1N(C)Cc1ccc(OC)cc1 | inactive: 8.12%
16 | COc1cc2c(cc1NC(=O)CSc1nnc(Cc3cccs3)n1C)oc1ccccc12 | inactive: 6.79%
17 | CC(C(=O)Nc1cccnc1)c1ccc([N+](=O)[O-])cc1 (stereo not drawn) | inactive: -6.44%
18 | O=C(O)c1cccc(Cn2c(Cl)c(/C=N/NC(=O)c3ccc(O)cc3)sc2=O)c1 | inactive: -27.3%
19 | CC(C)CNC(=O)NC(=O)COC(=O)c1ccccc1Sc1ccc(C(F)(F)F)cc1[N+](=O)[O-] | inactive: 18.1%
20 | N#CC(C(=O)NCCc1ccccc1)c1nc2ccccc2nc1N1CCOCC1 (stereo not drawn) | inactive: 0.774%
21 | O=S(=O)(Nc1nc2ccccc2s1)c1cnc(Cl)c(Br)c1 | inactive: 28.9%
22 | Cc1cc(NC(=O)C(C)Oc2ccccc2)no1 (stereo not drawn) | inactive: 12.4%
23 | Cc1ccccc1C(=O)NC(C(N)=O)P(=O)(OC(C)C)OC(C)C (stereo not drawn) | inactive: -5.44%
24 | Cc1ccc(NC(=O)CN2C(=O)C3CC=C(Cl)CC3C2=O)cc1 (stereo not drawn) | inactive: -7.53%
25 | CN(C(=O)CSc1cc(C(=O)c2nccn2C)c2ccccc2n1)c1ccccc1 | inactive: 23.6%
26 | COc1ccc(C2CC(c3ccc(Br)cc3)=NN2C(=S)Nc2ccccc2)cc1 (stereo not drawn) | inactive: 27.3%
27 | O=C(N/C=C\n1cnc2cc(C(F)(F)F)ccc21)c1ccc([N+](=O)[O-])cc1 | inactive: 13.6%
28 | O=C(Nc1ccc(F)c(Cl)c1)c1csc([C@@H]2O[C@H](CO)[C@H](O)[C@H](O)[C@H]2O)n1 | inactive: 7.97%
